In a compilation of properties of binary mixtures (doi:10.1021/je00044a019):
Some of these densities may be calculated back from excess volumes.

Experiment: xn = mol fraction of the nth substance listed
Settings: 101.3 kPa

[Cl][Cu] + CC[n+]1ccn(C)c1.[Cl-]
mass density [kg/m3]
Settings	298.15 K	303.15 K	308.15 K	313.15 K	318.15 K	323.15 K
x1 = 0.332	1364.5	1360.7	1356.9	1353.1	1349.3	–
x1 = 0.4	–	1380.5	1376.3	1372	1367.8	1363.6
x1 = 0.498	1515.3	1509.9	1504.5	–	1493.7	1488.3
x1 = 0.604	1689.5	1684.1	–	1673.4	1668.1	1662.7
x1 = 0.666	1873.1	1866.9	–	1854.5	1848.3	1842.1
